Measurements reported in publication PMC4582193.
No constants are given. Whether binding was seen depends on the method and setting. In cells and extracts the contact can be indirect. Some binding calls cover weakened binding; strength is not graded here. For part of these data: Tags and fused reporters may be left off the sequences shown. Values belong to the binder of their own block, whether it stands above or below them.

Columns and labels:
[1] = target: T1, GST fusion Cep85 protein (human) (UniProt Q6P2H3); assay: pull-down; GST–Cep85 expressed in and purified from E. coli as bait; HA–Nek2A overexpressed in HEK293T cells; only the target purified
T1 sequence: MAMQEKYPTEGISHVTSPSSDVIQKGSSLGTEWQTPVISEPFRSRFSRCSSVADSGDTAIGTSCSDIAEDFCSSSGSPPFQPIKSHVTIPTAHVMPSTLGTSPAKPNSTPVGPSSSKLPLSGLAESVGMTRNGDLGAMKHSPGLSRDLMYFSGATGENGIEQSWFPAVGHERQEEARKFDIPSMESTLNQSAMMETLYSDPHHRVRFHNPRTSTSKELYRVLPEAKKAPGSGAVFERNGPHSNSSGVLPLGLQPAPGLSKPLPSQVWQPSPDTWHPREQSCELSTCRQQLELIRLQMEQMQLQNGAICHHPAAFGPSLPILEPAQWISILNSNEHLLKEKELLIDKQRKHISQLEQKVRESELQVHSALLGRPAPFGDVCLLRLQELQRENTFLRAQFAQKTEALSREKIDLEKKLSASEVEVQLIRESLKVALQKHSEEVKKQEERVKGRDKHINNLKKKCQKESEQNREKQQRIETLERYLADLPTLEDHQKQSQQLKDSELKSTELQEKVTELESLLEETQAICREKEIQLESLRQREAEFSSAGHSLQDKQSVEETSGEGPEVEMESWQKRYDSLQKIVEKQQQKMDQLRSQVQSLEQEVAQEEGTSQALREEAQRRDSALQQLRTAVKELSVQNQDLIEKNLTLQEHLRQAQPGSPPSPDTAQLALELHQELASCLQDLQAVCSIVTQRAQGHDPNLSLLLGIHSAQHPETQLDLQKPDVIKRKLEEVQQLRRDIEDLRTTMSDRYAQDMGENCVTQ

Myc-tagged Cep85 (human) = target: T2, Myc-tagged Cep85 (human) (UniProt Q6P2H3); assay: co-IP; Myc–Cep85 constructs and HA–Nek2A constructs co-expressed in HEK293T cells; lysis in 50 mM Tris-HCl pH 7.4, 150 mM NaCl, 1 mM EDTA, 0.5% NP-40; antibody 2 h at 4°C, Protein A/G PLUS-Agarose; western blotting
T2 sequence: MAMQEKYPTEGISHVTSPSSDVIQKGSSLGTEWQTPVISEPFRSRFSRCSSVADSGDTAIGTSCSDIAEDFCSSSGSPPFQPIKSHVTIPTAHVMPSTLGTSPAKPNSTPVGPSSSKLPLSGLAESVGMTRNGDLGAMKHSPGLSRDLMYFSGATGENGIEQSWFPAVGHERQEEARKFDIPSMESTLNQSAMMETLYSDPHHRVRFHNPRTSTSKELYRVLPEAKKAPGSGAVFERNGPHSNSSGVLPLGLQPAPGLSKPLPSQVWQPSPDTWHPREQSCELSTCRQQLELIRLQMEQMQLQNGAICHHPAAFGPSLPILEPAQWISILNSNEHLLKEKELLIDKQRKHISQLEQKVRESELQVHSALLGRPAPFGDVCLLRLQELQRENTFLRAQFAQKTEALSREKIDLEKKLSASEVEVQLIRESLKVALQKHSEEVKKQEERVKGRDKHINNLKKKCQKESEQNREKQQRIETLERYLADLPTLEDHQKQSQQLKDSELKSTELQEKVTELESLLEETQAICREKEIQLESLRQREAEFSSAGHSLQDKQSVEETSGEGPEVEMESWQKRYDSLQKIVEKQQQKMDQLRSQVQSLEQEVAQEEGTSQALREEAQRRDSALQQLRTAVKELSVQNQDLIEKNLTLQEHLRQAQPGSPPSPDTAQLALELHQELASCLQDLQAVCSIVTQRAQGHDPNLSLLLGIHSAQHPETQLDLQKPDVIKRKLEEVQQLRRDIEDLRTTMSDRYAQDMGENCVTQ

[2] = target: T3, Myc–Cep85 mutant containing amino acids 257–433 alone (human) (UniProt Q6P2H3); assay: as above
T3 sequence: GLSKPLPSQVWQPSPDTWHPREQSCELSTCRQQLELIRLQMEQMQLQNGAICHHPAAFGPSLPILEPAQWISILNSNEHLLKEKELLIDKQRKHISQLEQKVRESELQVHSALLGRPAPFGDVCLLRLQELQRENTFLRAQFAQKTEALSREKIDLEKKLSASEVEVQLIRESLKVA

[3] = target: T4, Myc–Cep85 internal deletion mutant M23 (human) (UniProt Q6P2H3); assay: as above
T4 sequence: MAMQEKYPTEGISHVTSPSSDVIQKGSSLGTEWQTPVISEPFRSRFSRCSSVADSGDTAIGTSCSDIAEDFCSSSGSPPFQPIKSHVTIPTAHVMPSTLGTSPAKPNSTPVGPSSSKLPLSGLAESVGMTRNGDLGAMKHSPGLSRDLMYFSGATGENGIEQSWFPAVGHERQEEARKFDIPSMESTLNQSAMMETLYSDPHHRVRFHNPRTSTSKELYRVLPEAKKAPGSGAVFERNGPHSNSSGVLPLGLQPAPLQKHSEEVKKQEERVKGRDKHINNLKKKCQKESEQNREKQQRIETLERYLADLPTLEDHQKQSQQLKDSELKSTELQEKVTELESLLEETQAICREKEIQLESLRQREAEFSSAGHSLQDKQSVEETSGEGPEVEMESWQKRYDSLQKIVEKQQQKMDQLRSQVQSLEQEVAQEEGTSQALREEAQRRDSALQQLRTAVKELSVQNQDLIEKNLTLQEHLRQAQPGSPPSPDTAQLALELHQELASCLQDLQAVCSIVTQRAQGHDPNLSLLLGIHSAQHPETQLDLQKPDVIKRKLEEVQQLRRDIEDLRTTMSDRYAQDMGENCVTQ

[4] = target: T5, centrosomal protein 85 kDa (Cep85), endogenous in HEK293T (human (endogenous in HEK293T)) (UniProt Q6P2H3); assay: co-IP; endogenous Cep85 in HEK293T cell lysate immunoprecipitated with anti-Cep85 antibody; Nek2A detected with anti-Nek2A antibody
T5 sequence: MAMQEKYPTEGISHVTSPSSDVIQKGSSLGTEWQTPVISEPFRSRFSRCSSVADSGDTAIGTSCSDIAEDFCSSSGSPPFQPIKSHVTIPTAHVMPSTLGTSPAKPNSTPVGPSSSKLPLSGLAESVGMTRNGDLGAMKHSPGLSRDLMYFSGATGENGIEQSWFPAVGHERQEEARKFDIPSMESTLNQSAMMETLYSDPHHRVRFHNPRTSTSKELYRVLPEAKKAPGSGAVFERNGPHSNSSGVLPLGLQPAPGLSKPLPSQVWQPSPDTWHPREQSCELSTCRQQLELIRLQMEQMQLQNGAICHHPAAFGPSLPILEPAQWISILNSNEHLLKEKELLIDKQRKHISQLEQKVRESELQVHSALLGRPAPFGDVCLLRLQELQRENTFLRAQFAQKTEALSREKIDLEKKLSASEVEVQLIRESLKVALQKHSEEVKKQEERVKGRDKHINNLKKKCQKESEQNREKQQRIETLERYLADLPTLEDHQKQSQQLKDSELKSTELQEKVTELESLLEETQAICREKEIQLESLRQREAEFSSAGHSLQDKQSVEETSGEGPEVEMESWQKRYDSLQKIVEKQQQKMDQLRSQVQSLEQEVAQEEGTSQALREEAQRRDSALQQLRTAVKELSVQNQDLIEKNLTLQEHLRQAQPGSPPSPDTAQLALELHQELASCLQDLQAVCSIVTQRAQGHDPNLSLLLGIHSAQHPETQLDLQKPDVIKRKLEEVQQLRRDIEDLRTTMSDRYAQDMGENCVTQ

[5] = target: T6, Cep85, endogenous in U2OS (human (endogenous in U2OS)) (UniProt Q6P2H3); assay: co-IP; endogenous Cep85 in U2OS cell lysate immunoprecipitated with anti-Cep85 antibody; Nek2A detected with anti-Nek2A antibody
T6 sequence: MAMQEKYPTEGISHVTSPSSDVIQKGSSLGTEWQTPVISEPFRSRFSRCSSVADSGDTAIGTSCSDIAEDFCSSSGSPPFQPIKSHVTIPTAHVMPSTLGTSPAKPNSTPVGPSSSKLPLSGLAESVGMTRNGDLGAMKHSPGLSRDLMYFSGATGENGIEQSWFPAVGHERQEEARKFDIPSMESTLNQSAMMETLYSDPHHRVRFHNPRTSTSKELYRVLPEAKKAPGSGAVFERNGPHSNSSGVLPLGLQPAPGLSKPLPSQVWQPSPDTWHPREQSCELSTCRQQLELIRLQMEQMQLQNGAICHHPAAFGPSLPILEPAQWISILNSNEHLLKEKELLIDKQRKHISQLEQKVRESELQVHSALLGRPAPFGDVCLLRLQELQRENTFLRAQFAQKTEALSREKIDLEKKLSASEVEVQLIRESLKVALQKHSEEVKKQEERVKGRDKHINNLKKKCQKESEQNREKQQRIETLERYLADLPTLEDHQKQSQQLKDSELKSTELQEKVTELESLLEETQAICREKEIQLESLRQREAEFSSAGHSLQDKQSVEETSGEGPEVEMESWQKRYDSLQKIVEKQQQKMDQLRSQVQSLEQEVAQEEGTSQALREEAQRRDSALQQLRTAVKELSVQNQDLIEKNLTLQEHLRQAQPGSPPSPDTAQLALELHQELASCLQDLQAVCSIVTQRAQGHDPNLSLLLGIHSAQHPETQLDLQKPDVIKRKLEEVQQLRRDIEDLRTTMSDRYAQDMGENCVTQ

- binding [1]: binds
- binding (Myc-tagged Cep85 (human)): binds
- binding [2]: binds
- binding [3]: no binding
B1: HA-tagged Nek2A (enzyme, UniProt P51955-1 1-445)
chain: MPSRAEDYEVLYTIGTGSYGRCQKIRRKSDGKILVWKELDYGSMTEAEKQMLVSEVNLLRELKHPNIVRYYDRIIDRTNTTLYIVMEYCEGGDLASVITKGTKERQYLDEEFVLRVMTQLTLALKECHRRSDGGHTVLHRDLKPANVFLDGKQNVKLGDFGLARILNHDTSFAKTFVGTPYYMSPEQMNRMSYNEKSDIWSLGCLLYELCALMPPFTAFSQKELAGKIREGKFRRIPYRYSDELNEIITRMLNLKDYHRPSVEEILENPLIADLVADEQRRNLERRGRQLGEPEKSQDSSPVLSELKLKEIQLQERERALKAREERLEQKEQELCVRERLAEDKLARAENLLKNYSLLKERKFLSLASNPELLNLPSSVIKKKVHFSGESKENIMRSENSESQLTSKSKCKDLKKRLHAAQLRAQALSDIEKNYQLKSRQILGMR

- binding [4]: binds
B2: Nek2A, endogenous in HEK293T (enzyme, UniProt P51955-1 1-445)
chain: MPSRAEDYEVLYTIGTGSYGRCQKIRRKSDGKILVWKELDYGSMTEAEKQMLVSEVNLLRELKHPNIVRYYDRIIDRTNTTLYIVMEYCEGGDLASVITKGTKERQYLDEEFVLRVMTQLTLALKECHRRSDGGHTVLHRDLKPANVFLDGKQNVKLGDFGLARILNHDTSFAKTFVGTPYYMSPEQMNRMSYNEKSDIWSLGCLLYELCALMPPFTAFSQKELAGKIREGKFRRIPYRYSDELNEIITRMLNLKDYHRPSVEEILENPLIADLVADEQRRNLERRGRQLGEPEKSQDSSPVLSELKLKEIQLQERERALKAREERLEQKEQELCVRERLAEDKLARAENLLKNYSLLKERKFLSLASNPELLNLPSSVIKKKVHFSGESKENIMRSENSESQLTSKSKCKDLKKRLHAAQLRAQALSDIEKNYQLKSRQILGMR

- binding [5]: binds
B3: Nek2A, endogenous in U2OS (enzyme, UniProt P51955-1 1-445)
chain: MPSRAEDYEVLYTIGTGSYGRCQKIRRKSDGKILVWKELDYGSMTEAEKQMLVSEVNLLRELKHPNIVRYYDRIIDRTNTTLYIVMEYCEGGDLASVITKGTKERQYLDEEFVLRVMTQLTLALKECHRRSDGGHTVLHRDLKPANVFLDGKQNVKLGDFGLARILNHDTSFAKTFVGTPYYMSPEQMNRMSYNEKSDIWSLGCLLYELCALMPPFTAFSQKELAGKIREGKFRRIPYRYSDELNEIITRMLNLKDYHRPSVEEILENPLIADLVADEQRRNLERRGRQLGEPEKSQDSSPVLSELKLKEIQLQERERALKAREERLEQKEQELCVRERLAEDKLARAENLLKNYSLLKERKFLSLASNPELLNLPSSVIKKKVHFSGESKENIMRSENSESQLTSKSKCKDLKKRLHAAQLRAQALSDIEKNYQLKSRQILGMR
